Laboratory results from the supplement of paper PMC12632987.
The full ranking holds about 4,500 sequences; the median of “median log2 fold change of GCK-ALFA target abundance (FLAG IP / Myc IP barcode read proportion)” is about 0.078, and the lowest 2% start at about -0.6. The list shows a part of the results.

B1: GBRAP_83_6965 (protein)
chain: MEKITVATTKDHIDSAIEAARDLATEEGYEVTIEIIGSPEEVLESAEKAAEALKDIPNVEILAAVENVRPEEAEELKKRLAEIGKKYGLKVEVRYEIVEP
B2: GBRAP_78_6658 (protein)
chain: ELEEALDKAEEAARELLKKAKKVDPELANLAAEADVLVGEARLLYEIEKASPEEIKKALKEAKKAAEELAKKAKKKDKEVAELAEKLIKLLEEAIKLLEK
B3: GBRAP_52_5860 (protein)
chain: MVEEALEKLRKAVEAMKAGKEEEAEKILKEIVENFDEETILAAAEAFAKEMATATPEEAEAAFRTAEMLGKILEEAGFDEEVVTLIEDTIGAAVARVEAA
B4: GBRAP_160_4734 (protein)
chain: SERIEKAVEEAKEEFLEAVDDTADLSKEEQRAVFEGTAGEVLMDFIEDPNFSDEMEDTAAKMLDELVEELAANYDASVEEKKAIVEEKMEKLKKELLKLA
B5: GBRAP_160_4724 (protein)
chain: DPRLEALVAEARELLTEAVELSEDLSREEARALFETAAGEVLLDFAEDPFVTDEMEEKAAEILDELVAELVANYDASLEEKKAIVDRHMERLLEELKKLA
B6: GBRAP_160_4646 (protein)
chain: SESLKDILEIIDFYTEIAKEAIDEGDLDNAIAAMRMMTGDVVLEADEDPRFSEEDVDELDELGRKAVAELEAAKDASPEELKALVEKGAEELKKKIEEFY
B7: GBRAP_160_4822 (protein)
chain: SATVEEMKKLVDATTAEALALVAGETAANRAAIVAVEFGQLVLELSERPEVTDELEDKIAAIGDALVAHIAANPDLTDAELAAAIEAARDAIIAAIESSF
B8: GBRAP_35_5539 (protein)
chain: NEEEEEVEMIVNTMEDLVDALPDVSPEDRAALAEHLIRLAEDIVKDKPKNEKLIERAIKNLERAIEILKKSDLPEEDRERLIERLKEVKEELKKILKENK
B9: GBRAP_160_4130 (protein)
chain: KEELKKLKEEIKEIAEEAIKMIEGESVEEAKVIARVALGEIIMLVESNEAVSEELEEKIGEIADEAEEYLDENPDLSVEEIKELLKETAEKIVELIEKEI
B10: GBRAP_11_2906 (protein)
chain: KKEKLKKAAKLAKEAAKLLKKLIEEGAEDEELWKKAKKALEELLKLAEEYLDESDVELAKEALELLEKAKEDPENAEKYLKEALAITRVLEGQILLAIEE
B11: GBRAP_160_4777 (protein)
chain: SEKIEELLKAIEEAEKRILEAIDELSPEETIVVARGEAGDILMLAFEANPDNDELEEALDEILDKLIEELEKAKDASPEEQKKIVKEHAKKMKETVKKLN
B12: GBRAP_9_7128 (protein)
chain: REELIEKLAEVVKDMIEDISKVVPSLTEEQKEEFLKRVEKLKEELLKDKTATPEEIAEKFKKLVREIRDEVKKIVNEEEAKLVDAISLTAEEEIDEIVEE
B13: GBRAP_137_3668 (protein)
chain: MIKVKIELEDGLAFAEVTIEGSKEELEKAAKIAEDIAGEIPNIAISVEITEDGKLKIDLFGTKEDIMEALKRLAKRLNKTVEVTEYNEETGEVTEFTITP
B14: GBRAP_128_3261 (protein)
chain: ANAEVVAQARAVVDQIKNSNAAEAQAIADAFMDWLLASSLEDAAQAVDVVESNLHKLTAEQLDILADAARKHLPLADPEKAELLAGLEVAALNEAEEKEE
B15: GBRAP_160_4690 (protein)
chain: SEKVEKAKKFIKEEFQEVVDLWPDVTPEELAAAVRVAFGNIKLELEELGLLTDEIDETIDKKEEEIVKAILENPNITKEELAKMLEEAAKEIEKKLEEAS
B16: GBRAP_160_4419 (protein)
chain: DELIEEVDELLDETEELVVELVEEGKREEAIAALRVGAGEILLLLDEDESVSEETEEKVDKILDETIKKFEENKDASPEEVRELLDKAREEILAVLKEGS
B17: GBRAP_184_5105 (protein)
chain: KVLVKEIEAETKEEAIEEAKKAIDEAAKQGAELILLLKLKNVSGEEIVEVIREIGEYAREAGIPRLTIGIENELDEETIDKAVKVADELGINLVLAIPDE
B18: GBRAP_186_5390 (protein)
chain: EEEEEEEEELLERLEEEYDIVIVVYLDEEDSLEEKKRTMERDVEAAAALARETGKRVAVLFRVTANEEELEELRAHAAELNERARAETGVAVALHGRLKP
B19: GBRAP_117_2567 (protein)
chain: SAEMEAHRAEVKALVDEASALIKARKAAPPEEQAALEAQLRDLIRTRTRELVERYGEDVTDELLEEELLSLDAEEYFTIELEREDAFAEIREEKEREERE
B20: GBRAP_184_5034 (protein)
chain: TVVERTIEAENLEELKAKVEALRAEVKGTGATLIVLAEIKNPTEEMVRALIEGLGAMRRAGDVSAVTLGFKEILSEELTDVALETGDKYGVRVVLPISDE
B21: GBRAP_160_4797 (protein)
chain: SERVEKVAELFREEAERAIEMAEGESHENRVNIFDVELGSAIMEAIEEGLLNDEEEDIAIEVRDKLIAELKANPDLTPEEIRALAEKAVKELEERLKELA
B22: GBRAP_128_3227 (protein)
chain: SAAEIAERVRALLAAIREAGPEEAAALARELAALVAAASVEEAEVAAEVIEELAPEMTEEQLDIMIDAFEAEARATDSPVALILRDIAIIFGEELLEKME
B23: GBRAP_78_6680 (protein)
chain: EVEEELDKAIEHLGKAASLLSKMKTEEALDILGEVIDAASTAEEARFGEADLKDLEEAKKKVEKALKEVKKIKTEEAKEVAKELEEAIKHLEKAIKLLKE
B24: GBRAP_184_5272 (protein)
chain: TVRHVEIEAETAEEAIAQVEAAAAEARAAGAKLRLTLLLKDASLEGVLRLLELLKELKDAGIIESATLELERLFSEEEIDQILAAADAAGVRVVLAIPDE
B25: GBRAP_83_6880 (protein)
chain: AEKITVAGPASRWEEIADAVIDLTKEEGYEVDVEVIATPEEIEKVLEMVKKLAEAGINTELLILGKGLTKEQAEELKKKIEEIAKKYGVDIKVEVILEEP
B26: GBRAP_160_4027 (protein)
chain: SEKIKEAMKFAKELFEEAEKLVEGQTAEQRAAIVAVTVGQIILEMTELGIDDDEVEDEIAKIGDEAVARILANPDLTEEEVKELIREAREKVLEALKKSE
B27: GBRAP_160_4075 (protein)
chain: SKETEELKKEIKEIAEEAIEFIKESNLENQIAIAEMMAGDILMLVFEAPFISDEDEERIDKILDKYVELLKENKDWSLEEKEEIIKEMAEEVIKEVEKAS
B28: GBRAP_184_5044 (protein)
chain: KIYERTIEAEDLEELKEKLEELEEEVKDFKGELIVLLKSPEFTEEMVKEALSRLKEMLEEGYVSSVTLGLDGKMSEEVIDLAIKLADEAGINLTIALEEE
B29: GBRAP_117_2596 (protein)
chain: SETEKKVEELVKELVEEIRKALEEMEELSEEEREELRKKLLERATEKVKEMLKLTDADTVEEFFAEALADLSPEDRVKAYIIFEEALAEAEDELEEEEEE

Each binder was assayed against GABARAP, O95166 (assay: median log2 fold change of GCK-ALFA target abundance (FLAG IP / Myc IP barcode read proportion) (log2 ratio); each designed protein is fused to an ALFA-tag nanobody in HEK293 cells to bring the named protein to FLAG-tagged glucokinase (GCK); Myc marks an untargeted standard; higher = target protein stabilised (more abundant)). Settings: target protein: 3xFLAG-MCP-GCK-ALFA reporter; HEK293 landing pad (RPLP).
GABARAP, O95166, sequence (O95166 whole entry, the tested form may be a part): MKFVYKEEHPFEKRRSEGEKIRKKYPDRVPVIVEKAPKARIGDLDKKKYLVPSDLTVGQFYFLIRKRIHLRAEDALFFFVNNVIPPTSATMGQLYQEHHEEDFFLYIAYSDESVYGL
How it was run: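 Binders fused to an ALFA nanobody were recombined as a library into HEK293 landing-pad cells, which were induced with 2 μg mL^−1 doxycycline and then transfected to express a FLAG-tagged target and a Myc-tagged standard. After 48 h, circular RNA barcodes recovered by anti-FLAG and anti-Myc immunoprecipitation of lysates were reverse transcribed, amplified and sequenced. Each binder's target abundance is the median log2 ratio of FLAG to Myc barcode read proportions, from barcodes present at ≥10^−7 in both replicates, binders carrying ≥3 barcodes per replicate, a 10^−6 pseudocount and pooled replicates.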
B1 was tested, and the “median log2 fold change” value was 0.0811. In the case of B2, the “median log2 fold change” value is reported as 0.143. For B3, the “median log2 fold change” value was 0.165. With B4 the “median log2 fold change” value was -0.00503. For B5, the “median log2 fold change” value was -0.149. For B6, the “median log2 fold change” value was -0.16. In the case of B7, the “median log2 fold change” value is reported as -0.284. In the case of B8, the “median log2 fold change” value is reported as 0.048. For B9, the “median log2 fold change” value was -0.457. For B10, the “median log2 fold change” value was 0.059. With B11 the “median log2 fold change” value was -0.0291. With B12 the “median log2 fold change” value was 0.384. With B13 the “median log2 fold change” value was 0.211. In the case of B14, the “median log2 fold change” value is reported as 0.255. For B15, the “median log2 fold change” value was 0.137. For B16, the “median log2 fold change” value was -0.0618. For B17, the “median log2 fold change” value was -0.00784. With B18 the “median log2 fold change” value was 0.154. With B19 the “median log2 fold change” value was 0.139. B20 was tested, and the “median log2 fold change” value was 0.176. For B21, the “median log2 fold change” value was 0.0551. B22 was tested, and the “median log2 fold change” value was -0.122. In the case of B23, the “median log2 fold change” value is reported as 0.17. For B24, the “median log2 fold change” value was 0.279. With B25 the “median log2 fold change” value was -0.0048. For B26, the “median log2 fold change” value was 0.302. In the case of B27, the “median log2 fold change” value is reported as -0.29. In the case of B28, the “median log2 fold change” value is reported as 0.181. In the case of B29, the “median log2 fold change” value is reported as 0.171.
